Assay results as given in PubChem BioAssay AID1347120 (National Center for Advancing Translational Sciences (NCATS), 2019).
Hit rate of the full screen: of about 390,000 compounds, about 930 (0.24%) were called active. Inconclusive means that the source gave no clear call. Such entries were picked first, then a sample of the others. Calls follow the shape of the dose curve; as a rule, active = well fitted activation curve with a large enough effect; inconclusive = small, poorly fitted or top-dose-only effect; inactive = no such curve, though single readings can be large or run the other way. A potency beside an inconclusive call is a rough fit, not a confirmed value.

Experiment: qHTS for Suppressors of FUS Proteinopathy: Primary screen using FUS-linked yeast assay; also: nearly all actives have a fitted effect of over 55% in size;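 as to growth rescue (activation): plate controls were DMSO vehicle for no effect and reference control for full effect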
Conditions: S. cerevisiae FUS-expressing, OD600, 24 h; Potency: growth rescue; growth rescue (activation): at 76.6 µM (top of the series)
Summary of the method: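 Yeast expressing FUS under galactose induction, OD 0.005 in 2% galactose medium; compounds in a dilution series, 24 h at 30C. Growth rescue by absorbance at 600 nm; CP55940 positive control, DMSO negative.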
Potency is read from the fitted curve at half-maximal effect; tags tell the direction and shape of the fitted curve.

SMILES | Potency | growth rescue (activation)
COc1ccc(N2C(=O)CC(Sc3nc4c(cc3C#N)CCC4)C2=O)cc1 (centres undefined) | inconclusive: 44.7 µM [activator, single point] | –
O=C(CC(c1ccccc1)(c1ccccc1)c1ccccc1)N[C@@H](Cc1ccccc1)C(=O)O | inconclusive: 35.5 µM [activator, single point] | –
CCCCn1c(N)c(N(CC(C)C)C(=O)C2CC(=O)N(c3ccc(C)cc3)C2)c(=O)[nH]c1=O (centres undefined) | inconclusive: 56.2 µM [activator, partial curve, poor fit] | –
Cc1cccc(NC(=O)CSc2cn(CC(=O)N3CCCCCC3)c3ccccc23)c1 | – | inactive: 10.4%
CCCCn1c(-c2ccccc2C)nc2cc3[nH]c(=O)c(C(C)C)nc3cc21 | inconclusive: 28.2 µM [activator, single point] | –
O=C(N/N=C/c1c(O)n(-c2ccccc2Cl)c(=O)c2ccccc12)c1cccnc1 | inconclusive: 17.8 µM [activator, single point] | –
Cc1cccc(N2C(=O)N(CC(=O)C(C)(C)C)c3ccccc3S2(=O)=O)c1C | inconclusive: 35.5 µM [activator, single point] | –
COc1ccc(CNC(=O)Cn2c(SCC(=O)Nc3ccc(OC)cc3)nc3ccccc32)cc1 | inconclusive: 14.1 µM [activator, partial curve, poor fit] | –
Cc1c(-c2csc(N)n2)c2ccccc2n1C | inconclusive: 50.1 µM [activator, single point] | –
Cc1ccc(OCc2nc(-c3ccc(C(=O)N4CCN(c5ccccc5F)CC4)cc3)oc2C)cc1 | inconclusive: 31.6 µM [activator, partial curve, poor fit] | –
COc1ccc(OC)c(CNC(=O)c2cc3c(-c4ccc(OC)c(OC)c4)nn(C)c3s2)c1 | inconclusive: 28.2 µM [activator, single point] | –
Cc1cccc(NC(=O)CSCC(=O)N(CCC(C)C)c2c(N)n(Cc3ccccc3)c(=O)[nH]c2=O)c1 | inconclusive: 35.5 µM [activator, single point] | –
C#CCNC(=O)C[C@@H]1C[C@@]2(C(=O)OC)CCCCC=C2N(Cc2cccc3ccccc23)C1=O | inconclusive: 39.8 µM [activator, single point] | –
COc1ccccc1N1CCN(C(=O)c2ccc3[nH]c4c(c3c2)CCCC4)CC1 | inconclusive: 31.6 µM [activator, single point] | –
CCc1cccc(NC(=O)CN2C(=O)COc3ccc(S(=O)(=O)Nc4ccccc4)cc32)c1 | inconclusive: 44.7 µM [activator, single point] | –
Cc1ccnc2c(N3C(=O)C4C5c6ccccc6C(c6ccccc65)C4C3=O)cccc12 (centres undefined) | inconclusive: 50.1 µM [activator, single point] | –
CCOC(=O)c1ccc(N2C(=O)c3[nH]nc(-c4ccc(C)cc4)c3C2c2cccc(F)c2)cc1 (centres undefined) | inconclusive: 22.4 µM [activator, partial curve, poor fit] | –
O=C(COC(=O)Cc1c[nH]c2ccccc12)Nc1cc(S(=O)(=O)N2CCOCC2)ccc1Cl | active: 35.5 µM | –
O=C(NCCc1ccccc1)c1cnc2sc(N3CCCCCC3)nn2c1=O | – | inactive: 1.34%
COc1ccccc1N1CCN(C(=O)c2cccc(S(=O)(=O)N3CCCCCC3)c2)CC1 | inconclusive: 31.6 µM [activator, partial curve, poor fit] | –
COC(=O)CCCn1cc(CN2CC=CS2(=O)=O)nn1 | – | inactive: -19.3%
O=c1[nH][nH]c2c1[C@H](c1ccccc1)O[C@H](C1CCCCC1)C2 | inconclusive: 50.1 µM [activator, single point] | –

SMILES | Potency | growth rescue (activation)
O=C(N/N=C/c1cccc(NC(=O)c2ccc(Cl)cc2)c1)c1ccc(O)cc1 | – | inactive: 28%
O=C(Cc1c(O)c2ccccc2[nH]c1=O)N(Cc1ccccc1)Cc1ccccc1 | inconclusive: 50.1 µM [activator, single point] | –
Cc1ccc(CNC(=O)c2ccc3c(c2)nc(C)n3-c2cccc(F)c2)cc1 | – | inactive: 14.9%
S=C(Nc1ccc(Cl)c(Cl)c1)N1CCCC1 | – | inactive: 29.2%
COc1ccc(OC)c2sc(NC(=O)c3ccc(S(=O)(=O)N4CCCC4)cc3)nc12 | – | inactive: -1.46%
Cc1cc(C)cc(OCC(=O)Nc2nc3c(s2)CC(C(C)(C)C)CC3)c1 (centres undefined) | – | inactive: 11.1%
Cc1cccc(-n2c(SCC(=O)O)nc3sc4c(c3c2=O)CCC4)c1 | inconclusive: 39.8 µM [activator, partial curve, poor fit] | –
Cc1ccc(C(=O)c2cc([N+](=O)[O-])ccc2N2CC(C)OC(C)C2)cc1 (centres undefined) | inconclusive: 35.5 µM [activator, partial curve, poor fit] | –
CCCCOc1cccc(C(=O)N(Cc2ccccc2)C2CCS(=O)(=O)C2)c1 (centres undefined) | inconclusive: 31.6 µM [activator, single point] | –
COc1ccc(-c2c3c(=O)n(C)c(=O)n(C)c3c3n2-c2ccccc2NC3c2ccc(OC)cc2)cc1 (centres undefined) | inconclusive: 50.1 µM [activator, single point] | –
COc1ccccc1C(=O)Oc1c(Sc2ccccc2)c(C)nn1C(C)(C)C | – | inactive: 23.4%
CCN(c1cccc(C)c1)S(=O)(=O)c1ccc(N2CCCCS2(=O)=O)cc1 | inconclusive: 35.5 µM [activator, single point] | –
CCCCCCC(=O)NC1CCCCN(Cc2ccccc2C)C1=O (centres undefined) | – | inactive: 41%
COc1ccccc1CNC(=O)N(CCc1c(C)[nH]c2ccccc12)Cc1cccs1 | inconclusive: 4.47 µM [activator, full curve, poor fit] | –
Cc1cc(NC(=O)CSc2cc(Cl)ccc2Cl)n(-c2ccccc2)n1 | – | inactive: 41.2%
COc1ccc2occ(CC(=O)Nc3ccc(S(=O)(=O)Nc4nccc(C)n4)cc3)c2c1 | inconclusive: 25.1 µM [activator, single point] | –
Cc1cc2nnc(SCc3ccc(F)cc3)n2c2ccccc12 | – | inactive: 28.8%
C=CCn1c(SCC(=O)NC(=O)NCc2ccco2)nc2sc(C)c(C)c2c1=O | inconclusive: 20 µM [activator, partial curve, poor fit] | –
CC(=O)NS(=O)(=O)c1ccc(NC(=O)c2cccc(S(=O)(=O)N3CCc4ccccc43)c2)cc1 | inconclusive: 35.5 µM [activator, single point] | –
CC(c1ccccc1)N1CCn2c(nc3cc(NC(=O)NC4CCCCC4)ccc32)C1 (centres undefined) | active: 11.2 µM | –
COc1ccccc1CNC(=O)COC(=O)C1CCN(S(=O)(=O)c2c(Cl)cccc2Cl)CC1 | inconclusive: 14.1 µM [activator, partial curve] | –
COc1cccc(-c2cnc3c(NC=O)cc(-c4ccc(OC)cc4OC)cn23)c1 | inconclusive: 28.2 µM [activator, single point] | –

SMILES | Potency | growth rescue (activation)
Cc1ccc(-n2c(C3CC3c3ccc(Cl)cc3)n[nH]c2=S)cc1 (centres undefined) | – | inactive: 18.2%
CC(C)C[C@H](NC(=O)c1nc[nH]c1C(=O)N(C)Cc1ccccc1)C(=O)OCc1ccccc1 | inconclusive: 10 µM [activator, partial curve] | –
Clc1ccc(-c2nc3cnccn3c2Nc2ccc3c(c2)OCO3)cc1 | inconclusive: 28.2 µM [activator, single point] | –
Cc1cc(NS(=O)(=O)c2ccc(NC(=O)CSc3nc4sc(C)c(C)c4c(=O)n3Cc3ccco3)cc2)nc(C)n1 | inconclusive: 20 µM [activator, partial curve, poor fit] | –
Cc1cccc(NC(=O)c2cccc(S(=O)(=O)N(C)C3CCCCC3)c2)n1 | – | inactive: 11.6%
Cc1ccc(OCC(=O)NC(=S)Nc2ccc(S(=O)(=O)Nc3cc(C)on3)cc2)c(Br)c1 | inconclusive: 14.1 µM [activator, partial curve] | –
CCCCN(CC)CCNC(=O)c1c(C)oc2ncnc(N3CCOCC3)c12 | – | inactive: -12%
CC(=O)N1CCOCCOCCN(C(C)=O)CCOCC1 | – | inactive: 8.18%
Cc1cc(C)c(S(=O)(=O)Nc2ccc(-c3ccc(N4CCC(C)CC4)nn3)cc2)cc1C | inconclusive: 31.6 µM [activator, partial curve, poor fit] | –
CC(C(=O)NC1CCS(=O)(=O)C1)N1C(=O)/C(=C/c2ccc(Cl)cc2)SC1=S (centres undefined) | inconclusive: 50.1 µM [activator, single point] | –
O=C(c1ccoc1)N1CCC2(CC1)Oc1ccc(F)cc1C(=O)C21CC(c2ccccc2)=NO1 (centres undefined) | inconclusive: 28.2 µM [activator, partial curve, poor fit] | –
CC1(C(=O)Nc2ccc3c(c2)OCO3)CCN1C(=O)Cc1ccc(-c2ccccc2)cc1 (centres undefined) | inconclusive: 35.5 µM [activator, single point] | –
CCNc1nc(NCC)nc(SCCOC(=O)COc2ccc(Cl)cc2Cl)n1 | – | inactive: 18.3%
O=C(NCCc1ccc(Cl)cc1)c1cnc2sc(N3CCOCC3)nn2c1=O | – | inactive: -8.62%
Cc1ccc(-c2nc3nc(C)cc(N4CCN(c5cccc(C)c5C)CC4)n3n2)cc1 | – | inactive: -29.4%
CCOc1ccc(-n2c(N)c(C(=O)NCc3ccco3)c3nc4ccccc4nc32)cc1 | inconclusive: 31.6 µM [activator, partial curve, poor fit] | –
Cc1c(Cl)ccc2sc(N3CCN(C(=O)C(C)C)CC3)nc12 | – | inactive: 43.6%
CC1CC(C)CN(CCCNC(=O)c2cn(C)c3ccc(S(=O)(=O)N4CCCC4)cc3c2=O)C1 (centres undefined) | – | inactive: -2.46%
COc1ccc(CC(=O)Nc2ccc3nc(Nc4ccc(OC)cc4)cc(C)c3c2)cc1 | inconclusive: 25.1 µM [activator, single point] | –
C[C@@H]1/C=C/CC(=O)N[C@H](c2ccc3ccccc3c2)[C@H](C)/C=C/CC(=O)N[C@@H]1c1ccc2ccccc2c1 | inconclusive: 28.2 µM [activator, partial curve, poor fit] | –
